Results on 60 compounds are retold here after the supplement of paper PMC9446081.

In all, about 39,000 compounds went through this assay and about 220 (0.56%) showed activity. The list shows a part of the results.
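Also: static incubation at 37 °C against the wild-type strain, values averaged over two biological replicates.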

This experiment deals with Escherichia coli K-12 BW25113. Kind of experiment: relative growth (OD600 normalised to plate interquartile mean) (fraction); higher = less growth inhibition, active = 0.2 or less. The conditions noted are these: 50 µM; LB; incubation time: overnight (16-24 h).
For `CO[C@@H]1CN(C)C(=O)c2cc(NS(=O)(=O)CC(F)(F)F)ccc2OC[C@H](C)N(C(=O)c2ccc3c(c2)OCO3)C[C@H]1C`, the relative growth is inactive: 0.963. Under `C[C@@H]1CN([C@@H](C)CO)C(=O)c2cc(C#CCN(C)C)cnc2O[C@@H]1CN(C)C(=O)Nc1ccccc1F` stands inactive: 1; under `C[C@@H]1CN([C@H](C)CO)C(=O)Cc2cc(NC(=O)CCN3CCOCC3)ccc2O[C@H]1CN(C)Cc1ccc(C(=O)Nc2ccccc2N)cc1`, inactive: 1.02; under `Cc1noc(C)c1NC(=O)N[C@@H]1CC[C@H](CC(=O)NCCCN(C)C)O[C@@H]1CO`, inactive: 0.996.

On to `COc1ccc(CCNC(=O)[C@@]2(Cc3ccccc3I)c3ccccc3C(=O)N(C3CCCCC3)[C@H]2c2ccc(CO)cc2)cc1`, for which the relative growth was inactive: 1.

For `COc1cc2c(cc1O)[C@H](c1ccc(CN3CCCC3)cc1)N(Cc1cc3c(cc1Br)OCO3)CC2`, the relative growth is inactive: 1.01.

`C[C@@H]1CN([C@H](C)CO)C(=O)c2cccc(NC(=O)c3ccncc3)c2O[C@@H]1CN(C)Cc1ccncc1`: the relative growth was inactive: 0.989. The result for `O=C(C[C@@H]1CC[C@@H]2[C@H](COC[C@H](O)CN2C(=O)c2ccc(F)cc2)O1)NCCCN1CCOCC1` reads inactive: 0.969; that for `C[C@@H]1CCCCO[C@@H](CN(C)CC2CCCCC2)[C@@H](C)CN([C@H](C)CO)C(=O)c2cc(NC(=O)CCC(F)(F)F)ccc2O1`, inactive: 0.966. Under `C[C@H]1CN([C@@H](C)CO)C(=O)c2cccc(NC(=O)C3CCOCC3)c2O[C@@H]1CN(C)S(=O)(=O)c1ccc(F)cc1` stands inactive: 0.97; under `CN1C(=O)c2cc(NC(=O)c3cccs3)ccc2OC[C@H]2O[C@H](CC(=O)NCC(F)(F)F)CC[C@H]21`, inactive: 1; under `C[C@@H]1CCCCO[C@H](CN(C)Cc2ccccc2)[C@H](C)CN([C@@H](C)CO)C(=O)c2cc(NC(=O)c3ccccc3)ccc2O1`, inactive: 0.964. Consider `CN(C)CCOc1ccc(C#N)cn1`, for which the relative growth is inactive: 1. The result for `CCOc1cc(OCC)cc(C(=O)N[C@@H](Cc2ccc(-n3cc(CCC(=O)NO)nn3)cc2)C(=O)OC)c1` reads inactive: 1; that for `O=C(C[C@H]1CC[C@H]2[C@@H](COC[C@H](O)CN2S(=O)(=O)c2ccccc2)O1)NCCN1CCCCC1`, inactive: 1. The result for `CC1(C)C[C@@](C)(c2ccccc2)c2cc(SC#N)ccc2N1` reads inactive: 1.02.

`C[C@@H]1CCCCO[C@@H](CN(C)C(=O)C2CCCCC2)[C@@H](C)CN([C@@H](C)CO)C(=O)c2cc(NC(=O)CCC(F)(F)F)ccc2O1`: the relative growth was inactive: 0.991. The result for `CCCNC(=O)COc1cccc([C@@H](CCc2ccc(OC)c(OC)c2)OC(=O)[C@@H]2CCCCN2C(=O)C(=O)C(C)(C)CC)c1` reads inactive: 1.04; that for `C[C@@H]1CCCCO[C@@H](CN(C)C(=O)Nc2ccc3c(c2)OCO3)[C@H](C)CN([C@@H](C)CO)C(=O)c2cc(NS(=O)(=O)c3cccs3)ccc2O1`, inactive: 1.01. In the case of `CCCCCCOc1ccccc1C(N)=O`, the relative growth is inactive: 0.945. The result for `C[C@H](CO)N1C[C@H](C)[C@H](CN(C)S(=O)(=O)c2cccs2)Oc2ccc(NC(=O)c3ccncc3)cc2CC1=O` reads inactive: 0.983; that for `CC(C)c1onc(-c2c(Cl)cccc2Cl)c1COc1ccc(C=Cc2cccc(C(=O)O)c2)c(Cl)c1`, inactive: 0.895; that for `C[C@H](CO)N1C[C@H](C)[C@@H](CN(C)S(=O)(=O)c2cn(C)cn2)Oc2ccc(NC(=O)c3ccncc3)cc2CC1=O`, inactive: 0.95. The result for `C[C@@H](N)CCc1ccc(Br)cc1` reads inactive: 0.911. The result for `O=C(C[C@H]1CC[C@H]2[C@@H](COC[C@H](O)CN2S(=O)(=O)c2ccc(F)cc2)O1)N[C@@H]1CCN(Cc2ccccc2)C1` reads inactive: 1.01. On to `COc1ccc(CN(C)C[C@@H]2OCCCC[C@H](C)Oc3ccc(NC(=O)Nc4ccc(F)cc4)cc3C(=O)N([C@H](C)CO)C[C@H]2C)cc1`, for which the relative growth is inactive: 0.982. As for `Cc1ccc(S(=O)(=O)Nc2ccc3c(c2)C(=O)N([C@H](C)CO)C[C@H](C)[C@@H](CN(C)Cc2ccc(Cl)c(Cl)c2)O3)cc1`, the relative growth was inactive: 0.97. Regarding `C[C@H](CO)N1C[C@H](C)[C@H](CN(C)S(C)(=O)=O)Oc2ccc(NC(=O)Nc3ccc(C(F)(F)F)cc3)cc2C1=O`, the relative growth is inactive: 0.937. The result for `Cc1noc(C)c1S(=O)(=O)N(C)C[C@H]1OCCCC[C@H](C)Oc2ccc(NS(C)(=O)=O)cc2C(=O)N([C@H](C)CO)C[C@@H]1C` reads inactive: 0.844; that for `O=C(C[C@@H]1CC[C@@H]2[C@H](COC[C@@H](O)CN2CC2CCOCC2)O1)N1CCOCC1`, inactive: 0.995; that for `C[C@@H]1CN([C@H](C)CO)C(=O)c2cccc(NC(=O)c3ccc(-c4nccs4)cc3)c2O[C@H]1CN(C)S(C)(=O)=O`, inactive: 0.936. Under `Cc1noc(C)c1NC(=O)N(C)C[C@H]1OCCCC[C@@H](C)Oc2ccc(NS(=O)(=O)c3ccc(F)cc3)cc2C(=O)N([C@@H](C)CO)C[C@@H]1C` stands inactive: 1.05; under `C[C@@H]1CN([C@@H](C)CO)S(=O)(=O)c2ccc(C#CC(C)(C)O)cc2O[C@H]1CN(C)C(=O)C1CCCCC1`, inactive: 0.973. The result for `O=C(C[C@H]1C=C[C@H](NS(=O)(=O)c2ccccc2F)[C@H](CO)O1)NCCCN1CCOCC1` reads inactive: 1; that for `CNC(=O)CN1CCO[C@H]2CN(C(=O)C(C)C)C[C@@H]21`, inactive: 0.995. As to `CN1C(=O)c2cc(NC(=O)C3CCCC3)ccc2OC[C@@H]2O[C@@H](CC(=O)NCCc3ccncc3)CC[C@@H]21`, the relative growth is inactive: 1.01. Under `COc1ccc(NC(=O)Nc2ccc3c(c2)[C@@H]2C[C@@H](CC(=O)NCc4ccccn4)O[C@H](CO)[C@@H]2O3)cc1` stands inactive: 1.01; under `COc1ccc(S(=O)(=O)N(C)C[C@@H]2Oc3c(NC(=O)C4CC4)cccc3C(=O)N([C@H](C)CO)C[C@H]2C)cc1`, inactive: 0.997; under `COC[C@H]1C[C@@H](c2nc(-c3ccc4c(c3)COc3cc5c(ccc6[nH]c([C@@H]7CC[C@H](C)N7C(=O)[C@@H](NC(=O)OC)C(C)C)nc65)cc3-4)c[nH]2)N(C(=O)[C@H](NC(=O)OC)c2ccccc2)C1`, inactive: 1.06. The result for `COc1ccccc1CN1C(=O)c2ccccc2[C@@]2(Cc3ccccc3N(CCCN(C)C)C2=O)[C@@H]1c1ccc(CO)cc1` reads inactive: 1.01. The result for `COc1ccc(S(=O)(=O)N(C)C[C@@H]2Oc3c(NC(=O)C4CCOCC4)cccc3C(=O)N([C@@H](C)CO)C[C@@H]2C)cc1` reads inactive: 0.983; that for `C[C@H](NC(=O)C[C@H]1CC[C@H](NC(=O)CN2CCOCC2)[C@@H](CO)O1)c1ccccc1`, inactive: 1. On to `C[C@@H]1CN([C@H](C)CO)C(=O)c2cccc(NS(=O)(=O)c3ccc(Cl)cc3)c2O[C@H]1CN(C)C(=O)Nc1ccc(C(F)(F)F)cc1`, for which the relative growth was inactive: 1. Under `C[C@@H]1CN([C@@H](C)CO)C(=O)Cc2cc(NS(=O)(=O)c3cn(C)cn3)ccc2O[C@H]1CN(C)S(=O)(=O)c1ccc(Cl)cc1` stands inactive: 1.01; under `CN1CCN(C(=O)C[C@@H]2C[C@@H]3c4cc(NC(=O)c5ccc6c(c5)OCO6)ccc4O[C@@H]3[C@H](CO)O2)CC1`, inactive: 1.02. Under `C[C@@H]1CN([C@H](C)CO)C(=O)c2cccc(NC(=O)C3CC3)c2O[C@@H]1CN(C)Cc1ccc(-c2ccccc2)cc1` stands inactive: 0.921; under `C[C@H](CO)N1C[C@H](C)[C@H](CN(C)C(=O)c2ccncc2)Oc2ncc(C#CC3CCCCC3)cc2C1=O`, inactive: 0.993; under `COc1ccc(S(=O)(=O)Nc2ccc3c(c2)C(=O)N([C@H](C)CO)C[C@H](C)[C@@H](CN(C)CC2CC2)O3)cc1`, inactive: 1.03. `COc1ccc(NC(=O)Nc2ccc3c(c2)C(=O)N([C@H](C)CO)C[C@H](C)[C@@H](CN(C)S(=O)(=O)c2cccs2)OCCCC[C@@H](C)O3)cc1`: the relative growth was inactive: 1.04. In the case of `C[C@@H]1CN([C@H](C)CO)C(=O)CCCn2cc(nn2)CO[C@@H]1CN(C)S(=O)(=O)c1ccc(Cl)cc1`, the relative growth is inactive: 1.03. Regarding `CCS(=O)(=O)Nc1ccc2c(c1)C(=O)N(C)C[C@@H](OC)[C@H](C)CN(C(=O)c1ccc3c(c1)OCO3)[C@H](C)CO2`, the relative growth is inactive: 1.02. Under `COc1ccc(CCNC(=O)[C@@]2(Cc3ccccc3I)c3ccccc3C(=O)N(Cc3ccccc3)[C@H]2c2ccc(COC(=O)NCCCCCC(=O)NO)cc2)cc1` stands inactive: 0.977. As for `COCC(=O)N(C)C[C@@H]1Oc2cc(-c3ccc(C#N)cc3)ccc2S(=O)(=O)N([C@@H](C)CO)C[C@@H]1C`, the relative growth was inactive: 0.952.

Regarding `COc1ccc(NC(=O)Nc2ccc3c(c2)C(=O)N([C@@H](C)CO)C[C@H](C)[C@@H](CN(C)C(=O)Cc2ccccc2)OCCCC[C@H](C)O3)cc1`, the relative growth was inactive: 1.02. Under `COc1ccc(S(=O)(=O)Nc2ccc3c(c2)C(=O)N([C@@H](C)CO)C[C@H](C)[C@H](CN(C)Cc2ccccc2)OCCCC[C@H](C)O3)cc1` stands inactive: 1; under `CC(=O)O.N=C(N)NN=Cc1c(Cl)cccc1Cl`, inactive: 0.885; under `C[C@@H]1CN([C@@H](C)CO)C(=O)Cc2cc(NC(=O)Cc3cn(C)c4ccccc34)ccc2O[C@H]1CN(C)Cc1ccc(Oc2ccccc2)cc1`, inactive: 1.01. As for `O=C(C[C@H]1C[C@@H]2c3cc(NS(=O)(=O)c4ccc(F)cc4)ccc3O[C@@H]2[C@H](CO)O1)NCc1cccc(F)c1`, the relative growth is inactive: 1.04. Under `Cl.Clc1ccccc1CN1CCc2sccc2C1` stands inactive: 0.983.

Turning to `Cc1ccc(C(=O)c2ccc(Oc3ccccc3)cc2)cc1`, the relative growth is inactive: 1.02.
